Data taken from patent US10316021B2, “Heteroarylphenoxy benzamide kappa opioid ligands” (Pfizer Inc., priority 2016, dated 2019).
Like-named read-outs stand apart in the source and are kept apart here. Some results were stated once for a whole list of compounds, not compound by compound.

How the values were obtained:
[1] = molecular target: T1, human kappa opioid receptor (hKOR) (Homo sapiens, UniProt P41145); test: Kappa radioligand binding assay ([3H]diprenorphine, CHO cell membranes)
T1 construct: expressed in transfected cells; host or cells: CHO cells
Method: Kappa and Mu Radioligand Binding Assay:
Binding assays on membranes from CHO cells expressing human kappa or mu opioid receptors were performed according to standard procedures. Frozen cell paste was homogenized in 50 mM Tris HCl buffer (pH 7.4 @ 4 degrees C.) containing 2.0 mM MgCl2 using a Polytron and spun in a centrifuge at 40,000 g for ten minutes. The final pellet was resuspended in assay buffer (50 mM Tris HCl buffer, pH 7.4, containing 1 mM EDTA, 5 mM MgCl2). Incubations were initiated by the addition of membranes to 96-well plates containing test drugs and [^3H]diprenorphine (0.6 nM final concentration for kappa opioid receptor and 0.5 nM final concentration for mu) in a final volume of 250 μl. Non-specific binding was determined by radioligand binding in the presence of a saturating concentration of naltrexone (10 μM). After a one hour incubation period at room temperature, assay samples were rapidly filtered through PEI coated, GF/B fired Unifilter plates (PerkinElmer) and rinsed with ice-cold 50 mM Tris buffer (pH 7.4). Membrane bound [^3H]diprenorphine levels were determined by liquid scintillation counting of the filterplates in Ecolume scintillation fluid. The IC50 value (concentration at which 50% inhibition of specific binding occurs) was calculated using a logistic 4 parameter fit model of the concentration-response data. Ki values were calculated according to the Cheng Prusoff equation, Ki=IC50/(1+(L/Kd)), where L is the concentration of the radioligand used in the experiment and the Kd value is the dissociation constant for the radioligand (determined previously by saturation analysis).

[2] = molecular target: T2, kappa opioid receptor (Mus musculus, UniProt P33534); test: Progressive ratio responding (reversal of spiradoline-induced deficit in motivation); assay type: in vivo; conditions: co-administered with spiradoline, receptor occupancy measured in a separate group of animals
T2 construct: from tissue; host or cells: brain of adult male C57BL/6J mice (in vivo)
Excerpt: Adult male C576BL/J6 mice from Jackson Labs (Bar Harbor, Me.) were group housed on individually-vented cage racks, in environmentally-controlled animal quarters (light/dark-6:00 am/6:[…]) for a minimum of 7 days prior to use. For progressive ratio studies, mice were food-restricted to 80-85% of their body weight before testing began. All animal procedures were approved by the Pfizer Inc. IACUC and conducted in accordance with the NIH Guide for the Care and Use of Laboratory Animals.
Progressive Ratio Responding:
Motivation and food-reinforced operant behavior were assessed in the progressive ratio assay. Adult male C576BL/J6 mice were food-restricted to 80-85% of their body weight over a period of one week and kept in their home cages. Mice were trained to nose-poke for a food reward. […] Mice were assessed in a 60 minute session, where the number of rewards obtained was used as a surrogate of the level of motivation. Once mice had reached a stable level of responding, mice were dosed with the kappa opioid receptor agonist, spiradoline (3.2 mg/kg s.c.), to induce a deficit in motivation. Mice were co-administered increasing doses of the kappa opioid receptor antagonists (0.0032-3.2 mg/kg s.c.) to assess their ability to antagonize the spiradoline-induced deficit.

[3] = tested on: CYP3A4; test: Single point time dependent inhibition (SPTDI) assay; assay type: in vitro ADME, human; conditions: tested at 10 μM
Method: Single Point Time Dependent Inhibition (SPTDI) Assay:
The objective of this study was to investigate the potential of a series of carboxamides to be time dependent inactivators of CYP3A isozymes, in vitro, using midazolam and testosterone as probe substrates for CYP 3A4/5 activity incubated with pooled human liver microsomes (HLM). Pooled HLMs (0.1-1.0 mg/ml) were pre-incubated with individual carboxamides at initial substrate concentrations of 6 or 10 μM in the presence and absence of NADPH (1.3 mM). Pre-incubations (n=2/compound) were performed for 30 min at 37° C. After pre-incubation, a 10-fold dilution of the incubate (0.02 ml) was added to the probe substrate incubate (0.18 ml) containing the respective probe P450 isozyme substrate (midazolam or testosterone for CYP3A, 1 uM), and was incubated at 37° C. The combined incubation reactions were terminated and analyzed for marker substrate activity (Ex: hydroxyl metabolite of midazolam and 6β hydroxy testesterone) as described previously (Walsky and Obach, 2004; Obach et al., 2007). Terminated incubation mixtures were filtered and analyzed by liquid chromatography (LC)-tandem mass spectrometry (MS/MS) for metabolites as described previously (Walsky and Obach, 2004). To determine kobs,app values, the decrease in natural logarithm of the activity over time was plotted for each inactivator concentration, and kobs,app values were described as the negative slopes of the lines. Inactivation kinetic parameters were determined using nonlinear regression of the data to the expression in eq. 1:
[formula] Statistical significance of kobs between solvent and test incubations was inferred using analysis performed by Yates et al. (Yates P, Eng H, Di L, Obach R S. Drug Metab Dispos 2012; 40:2289-96).
Irreversible inhibition, or time-dependent inhibition (TDI) of cytochrome P450s (CYPs) is generally characterized by an increase in enzyme inhibition with respect to time and inhibitor concentration (Grimm 2009). […]

T2 sequence (P33534 whole entry): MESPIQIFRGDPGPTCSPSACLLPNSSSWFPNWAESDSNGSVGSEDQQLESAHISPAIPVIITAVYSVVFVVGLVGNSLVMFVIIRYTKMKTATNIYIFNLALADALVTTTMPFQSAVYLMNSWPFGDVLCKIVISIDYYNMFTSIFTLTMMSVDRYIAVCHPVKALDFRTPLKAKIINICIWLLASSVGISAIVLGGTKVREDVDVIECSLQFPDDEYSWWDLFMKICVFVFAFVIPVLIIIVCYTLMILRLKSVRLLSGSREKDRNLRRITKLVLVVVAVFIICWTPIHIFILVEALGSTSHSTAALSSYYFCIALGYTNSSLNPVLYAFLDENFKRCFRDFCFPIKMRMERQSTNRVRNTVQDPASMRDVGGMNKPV
T1 sequence (P41145 whole entry): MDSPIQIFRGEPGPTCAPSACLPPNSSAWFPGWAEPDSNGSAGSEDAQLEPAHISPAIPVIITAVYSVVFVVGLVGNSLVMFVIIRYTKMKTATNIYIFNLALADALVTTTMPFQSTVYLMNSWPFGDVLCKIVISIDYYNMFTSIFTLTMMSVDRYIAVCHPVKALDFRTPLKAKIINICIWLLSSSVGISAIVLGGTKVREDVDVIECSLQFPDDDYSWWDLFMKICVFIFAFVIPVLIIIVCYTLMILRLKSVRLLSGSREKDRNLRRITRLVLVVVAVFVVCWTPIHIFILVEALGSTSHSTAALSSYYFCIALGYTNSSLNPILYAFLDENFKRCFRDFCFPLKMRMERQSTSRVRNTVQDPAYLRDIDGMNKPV

SMILES | selectivity for KOR over MOR (hMOR Ki divided by hKOR Ki) [1] | selectivity for KOR over MOR (hMOR Ki divided by hKOR Ki) ([1]; listed as Compound 12) | % KOR IVRO to achieve 50% PR reversal [2] | SPTDI kobs at CYP3A4 [3] | selectivity for KOR over MOR (hMOR Ki divided by hKOR Ki) ([1]; listed as Compound 8)
COc1nn(C)cc1[C@@H]1CCCN1Cc1ccc(Oc2ccc(C(N)=O)cc2)cc1 (single isomer, unassigned) [Example 12] | 31-42 fold | greater than 30 fold | 25-30% | < 0.008 min⁻¹ | –
COc1nn(C)cc1C1CCCN1Cc1ccc(Oc2ccc(C(N)=O)cc2F)cc1 (single isomer, unassigned; (-)) [Example 8, (−)-3-Fluoro-4-(4-{[2-(3-methoxy-1-methyl-1H-pyrazol-4-yl)pyrrolidin-1-yl]methyl}phenoxy)benzamide] | 31-42 fold | – | 25-30% | < 0.008 min⁻¹ | greater than 30 fold
Cc1cc(C)cc([C@@H]2CCCN2Cc2ccc(Oc3ccc(C(N)=O)cc3F)cc2)c1 [Comparator E, reference compound] | – | – | > 70% | – | –
Cc1nn(C)cc1[C@@H]1CCCN1Cc1ccc(Oc2ccc(C(N)=O)cc2)cc1 [Example 11, 4-(4-{[(2S)-2-(1,3-Dimethyl-1H-pyrazol-4-yl)pyrrolidin-1-yl]methyl}phenoxy)benzamide] | – | – | 25-30% | < 0.008 min⁻¹ | –
Cc1cc([C@@H]2CCCN2Cc2ccc(Oc3ccc(C(N)=O)cc3F)cc2)n(C)n1 [Example 45, 4-(4-{[(2S)-2-(1,3-dimethyl-1H-pyrazol-5-yl)pyrrolidin-1-yl]methyl}phenoxy)-3-fluorobenzamide] | – | – | > 70% | – | –
